Measurements taken from paper doi:10.1101/2022.04.12.488020 (bioRxiv, 2022).

Biological target: the molecule itself
Assay: cross-linking

B1: full-length human TLR5, HA-tagged (TLR5-HA) (receptor)
chain: not shown
stoichiometry N: 2
